Results on 31 sequences are retold here after PMC12820563, “FoxP3 forms a head-to-head dimer in vivo and stabilizes its multimerization on adjacent microsatellites”.

This is one part of the list.

For this assay, the target named is T1, MBP-FoxP1dN (Mus musculus, UniProt P58462 326-579).
T1 sequence: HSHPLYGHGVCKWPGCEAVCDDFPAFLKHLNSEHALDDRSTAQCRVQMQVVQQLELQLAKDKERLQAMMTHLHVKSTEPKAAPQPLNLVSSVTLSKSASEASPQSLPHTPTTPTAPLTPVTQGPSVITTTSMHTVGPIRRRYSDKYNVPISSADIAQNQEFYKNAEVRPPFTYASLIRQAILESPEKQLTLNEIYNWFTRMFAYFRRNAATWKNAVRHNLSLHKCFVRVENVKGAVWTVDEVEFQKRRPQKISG
Kind of assay: PD-seq (MBP pull-down with sequencing); 20 mM Tris-HCl pH 7.5, 100 mM NaCl, 1.5 mM MgCl2, 0.4 uM protein, 0.1 uM dsDNA library, 30 min, room temperature, amylose pull-down; high values mean tight binding. Particulars: protein: recombinant; tags: His6-MBP; chain copies: 2; dsDNA, one strand shown. In a few lines:
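A degenerate double-stranded DNA library, filled in with Klenow, was added at 0.1 µM to 0.4 µM His6-MBP-tagged mouse FoxP3 or FoxP1 fragment lacking the N-terminus, expressed in E. coli. Incubation lasted 30 min at room temperature in Tris pH 7.5 buffer with NaCl and MgCl2, after which complexes were collected on amylose resin, washed three times, digested with proteinase K to free the DNA, barcoded by PCR and sequenced by Illumina. Binding is the pooled-replicate reads-per-million enrichment of pull-down over input.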
As to “GATGATTGTTCTCCCAGCTGATGAATTTAGCTATTCGAGTAAACAAATTTTCCTAATCTTTCTGTTCAAGCGCCATCTAC”, the binding signal is 1 RPM ratio (pull-down/input).

For the sequence “GATGATTGTTCTCCCAGCTGATGAATTAGTCATCTCGAGTAAACAAATTTTCCTAATCTTTCTGTTCAAGCGCCATCTAC”, the binding signal is 0.918 RPM ratio (pull-down/input).

Turning to “GATGATTGTTCTCCCAGCTGATGAATTACGATCATCGAGTAAACAAATTTTCCTAATCTTTCTGTTCAAGCGCCATCTAC”, the binding signal is 0.984 RPM ratio (pull-down/input).

For “GATGATTGTTCTCCCAGCTGATGAATTGTTGCCCTCGAGTAAACAAATTTTCCTAATCTTTCTGTTCAAGCGCCATCTAC”, the binding signal is 1.42 RPM ratio (pull-down/input).

For “GATGATTGTTCTCCCAGCTGATGAATTGCTAGCGTCGAGTAAACAAATTTTCCTAATCTTTCTGTTCAAGCGCCATCTAC”, the binding signal was 0.999 RPM ratio (pull-down/input).

As for “GATGATTGTTCTCCCAGCTGATGAATTTGAAGTTTCGAGTAAACAAATTTTCCTAATCTTTCTGTTCAAGCGCCATCTAC”, the binding signal is 0.792 RPM ratio (pull-down/input).

Consider “GATGATTGTTCTCCCAGCTGATGAATTCCAGGCTTCGAGTAAACAAATTTTCCTAATCTTTCTGTTCAAGCGCCATCTAC”, for which the binding signal was 0.758 RPM ratio (pull-down/input).

Turning to “GATGATTGTTCTCCCAGCTGATGAATTCAAAGCTTCGAGTAAACAAATTTTCCTAATCTTTCTGTTCAAGCGCCATCTAC”, the binding signal is 0.827 RPM ratio (pull-down/input).

For “GATGATTGTTCTCCCAGCTGATGAATTTCGACCCTCGAGTAAACAAATTTTCCTAATCTTTCTGTTCAAGCGCCATCTAC”, the binding signal was 0.754 RPM ratio (pull-down/input).

As for “GATGATTGTTCTCCCAGCTGATGAATTCTGACGTTCGAGTAAACAAATTTTCCTAATCTTTCTGTTCAAGCGCCATCTAC”, the binding signal is 0.859 RPM ratio (pull-down/input).

With “GATGATTGTTCTCCCAGCTGATGAATTAAGCCGCTCGAGTAAACAAATTTTCCTAATCTTTCTGTTCAAGCGCCATCTAC”, the binding signal was 0.865 RPM ratio (pull-down/input).

As for “GATGATTGTTCTCCCAGCTGATGAATTAGGTGATTCGAGTAAACAAATTTTCCTAATCTTTCTGTTCAAGCGCCATCTAC”, the binding signal was 1.06 RPM ratio (pull-down/input).

Consider “GATGATTGTTCTCCCAGCTGATGAATTACTAGCGTCGAGTAAACAAATTTTCCTAATCTTTCTGTTCAAGCGCCATCTAC”, for which the binding signal is 0.999 RPM ratio (pull-down/input).

For the sequence “GATGATTGTTCTCCCAGCTGATGAATTTCACCTTTCGAGTAAACAAATTTTCCTAATCTTTCTGTTCAAGCGCCATCTAC”, the binding signal is 0.845 RPM ratio (pull-down/input).

For “GATGATTGTTCTCCCAGCTGATGAATTCAGCAATTCGAGTAAACAAATTTTCCTAATCTTTCTGTTCAAGCGCCATCTAC”, the binding signal was 1.02 RPM ratio (pull-down/input).

“GATGATTGTTCTCCCAGCTGATGAATTCGCGTCTTCGAGTAAACAAATTTTCCTAATCTTTCTGTTCAAGCGCCATCTAC”: the binding signal is 0.909 RPM ratio (pull-down/input).

Take “GATGATTGTTCTCCCAGCTGATGAATTGGTGGTTTCGAGTAAACAAATTTTCCTAATCTTTCTGTTCAAGCGCCATCTAC”: the binding signal was 0.966 RPM ratio (pull-down/input).

Take “GATGATTGTTCTCCCAGCTGATGAATTTGCGGCATCGAGTAAACAAATTTTCCTAATCTTTCTGTTCAAGCGCCATCTAC”: the binding signal is 1.02 RPM ratio (pull-down/input).

Regarding “GATGATTGTTCTCCCAGCTGATGAATTGGGAGTTTCGAGTAAACAAATTTTCCTAATCTTTCTGTTCAAGCGCCATCTAC”, the binding signal is 0.853 RPM ratio (pull-down/input).

For the sequence “GATGATTGTTCTCCCAGCTGATGAATTCTGCGCATCGAGTAAACAAATTTTCCTAATCTTTCTGTTCAAGCGCCATCTAC”, the binding signal is 1.12 RPM ratio (pull-down/input).

Regarding “GATGATTGTTCTCCCAGCTGATGAATTGCTCAGTTCGAGTAAACAAATTTTCCTAATCTTTCTGTTCAAGCGCCATCTAC”, the binding signal is 0.973 RPM ratio (pull-down/input).

As to “GATGATTGTTCTCCCAGCTGATGAATTATACAGTTCGAGTAAACAAATTTTCCTAATCTTTCTGTTCAAGCGCCATCTAC”, the binding signal was 1.18 RPM ratio (pull-down/input).

As for “GATGATTGTTCTCCCAGCTGATGAATTAACTTCTTCGAGTAAACAAATTTTCCTAATCTTTCTGTTCAAGCGCCATCTAC”, the binding signal is 0.832 RPM ratio (pull-down/input).

Regarding “GATGATTGTTCTCCCAGCTGATGAATTCGCATACTCGAGTAAACAAATTTTCCTAATCTTTCTGTTCAAGCGCCATCTAC”, the binding signal was 0.969 RPM ratio (pull-down/input).

In the case of “GATGATTGTTCTCCCAGCTGATGAATTTATCTGGTCGAGTAAACAAATTTTCCTAATCTTTCTGTTCAAGCGCCATCTAC”, the binding signal was 0.931 RPM ratio (pull-down/input).

Turning to “GATGATTGTTCTCCCAGCTGATGAATTCGCGGTATCGAGTAAACAAATTTTCCTAATCTTTCTGTTCAAGCGCCATCTAC”, the binding signal was 0.932 RPM ratio (pull-down/input).

As for “GATGATTGTTCTCCCAGCTGATGAATTTACCTATTCGAGTAAACAAATTTTCCTAATCTTTCTGTTCAAGCGCCATCTAC”, the binding signal is 1.33 RPM ratio (pull-down/input).

Regarding “GATGATTGTTCTCCCAGCTGATGAATTCAGAGTTTCGAGTAAACAAATTTTCCTAATCTTTCTGTTCAAGCGCCATCTAC”, the binding signal was 0.913 RPM ratio (pull-down/input).

With “GATGATTGTTCTCCCAGCTGATGAATTCCAGCCTTCGAGTAAACAAATTTTCCTAATCTTTCTGTTCAAGCGCCATCTAC”, the binding signal is 0.842 RPM ratio (pull-down/input).

Turning to “GATGATTGTTCTCCCAGCTGATGAATTCTACCCCTCGAGTAAACAAATTTTCCTAATCTTTCTGTTCAAGCGCCATCTAC”, the binding signal was 0.797 RPM ratio (pull-down/input).

Turning to “GATGATTGTTCTCCCAGCTGATGAATTAGAAGCTTCGAGTAAACAAATTTTCCTAATCTTTCTGTTCAAGCGCCATCTAC”, the binding signal is 0.996 RPM ratio (pull-down/input).
